Data: the supplement of paper PMC4604168 (melanoma cell lines)
The other results are listed elsewhere or left out. Single values are uncertain, as repeats are few or missing.

What follows are molecules tested on UACC62 (assay: cell count relative to DMSO control; melanoma cells; higher = more viable cells). Conditions: library dose: standard library concentration; 72 h.
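Further: cells treated in 1,536-well plates, then fixed and DAPI-stained, with nuclei counted from automated high-throughput microscope images.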

| Compound | cell count [%] |
| --- | --- |
| O=C(/C=C/c1cccnc1)NCCCCC1CCN(C(=O)c2ccccc2)CC1 + Cn1cc(/C=C2\C(=O)Nc3cccnc32)c2ccccc21 [GW441756] (first compound 0.05 µM, partner dose 2 µM) | 67.5 |
| O=C(/C=C/c1cccnc1)NCCCCC1CCN(C(=O)c2ccccc2)CC1 + CCCCCCCCCCCC1=C(O)C(=O)C=C(O)C1=O [Embelin] (first compound 0.05 µM, partner dose 6 µM) | 92.6 |
| O=C(/C=C/c1cccnc1)NCCCCC1CCN(C(=O)c2ccccc2)CC1 + Cc1cc(Nc2cc(N3CCN(C)CC3)nc(/C=C/c3ccccc3)n2)n[nH]1 [ENMD2076] (first compound 0.05 µM, partner dose 0.2 µM) | 58.8 |
| O=C(/C=C/c1cccnc1)NCCCCC1CCN(C(=O)c2ccccc2)CC1 + COC(=O)c1sccc1S(=O)(=O)Nc1ccc(Nc2ccccc2)cc1OC [GSK0660] (first compound 0.05 µM, partner dose 5 µM) | 107 |

What follows are molecules tested on WM115 in the same assay as above. Conditions: library dose: standard library concentration; 72 h.

| Compound | cell count [%] |
| --- | --- |
| CC1(C)CCC(c2ccc(Cl)cc2)=C(CN2CCN(c3ccc(C(=O)NS(=O)(=O)c4ccc(N[C@H](CCN5CCOCC5)CSc5ccccc5)c(S(=O)(=O)C(F)(F)F)c4)cc3)CC2)C1 + Cc1cc([N+](=O)[O-])ccc1NS(=O)(=O)c1cc(Cl)ccc1Cl [FH535] (first compound 2 µM, partner dose 5 µM) | 62.7 |
| O=C(/C=C/c1cccnc1)NCCCCC1CCN(C(=O)c2ccccc2)CC1 + CCc1ccc(CCOc2ccc(CC3SC(=O)NC3=O)cc2)nc1 [pioglitazone] (first compound 0.05 µM, partner dose 10 µM) | 95 |
| Cc1ccc(Nc2nccc(N(C)c3ccc4c(C)n(C)nc4c3)n2)cc1S(N)(=O)=O [Pazopanib] + COc1cc(N2CCC(N3CCN(C)CC3)CC2)ccc1Nc1ncc(Cl)c(Nc2ccccc2S(=O)(=O)C(C)C)n1 [NVP-TAE684] (first compound 2 µM, partner dose 0.4 µM) | 79.8 |
| O=C(/C=C/c1cccnc1)NCCCCC1CCN(C(=O)c2ccccc2)CC1 + COc1ccc(-c2ccc3c(N4CCOCC4)nc(N4C[C@@H](C)O[C@@H](C)C4)nc3n2)cc1CO [KU0063794] (first compound 0.05 µM, partner dose 0.1 µM) | 87.1 |
| Cc1ccc(Nc2nccc(N(C)c3ccc4c(C)n(C)nc4c3)n2)cc1S(N)(=O)=O [Pazopanib] + CCN(CC)CCCCNc1ncc2cc(-c3cc(OC)cc(OC)c3)c(NC(=O)NC(C)(C)C)nc2n1 [PD173074] (first compound 2 µM, partner dose 0.5 µM) | 111 |
| CC1(C)CCC(c2ccc(Cl)cc2)=C(CN2CCN(c3ccc(C(=O)NS(=O)(=O)c4ccc(N[C@H](CCN5CCOCC5)CSc5ccccc5)c(S(=O)(=O)C(F)(F)F)c4)cc3)CC2)C1 + NCC(=O)Nc1ccc(-n2nc(C(F)(F)F)cc2-c2ccc3c(ccc4ccccc43)c2)cc1 [OSU03012] (first compound 2 µM, partner dose 5 µM) | 69.4 |
| CC1(C)CCC(c2ccc(Cl)cc2)=C(CN2CCN(c3ccc(C(=O)NS(=O)(=O)c4ccc(N[C@H](CCN5CCOCC5)CSc5ccccc5)c(S(=O)(=O)C(F)(F)F)c4)cc3)CC2)C1 + Cc1cc(Nc2cc(N3CCN(C)CC3)nc(/C=C/c3ccccc3)n2)n[nH]1 [ENMD2076] (first compound 2 µM, partner dose 0.2 µM) | 51.8 |
| Cc1ccc(Nc2nccc(N(C)c3ccc4c(C)n(C)nc4c3)n2)cc1S(N)(=O)=O [Pazopanib] + c1cc(-c2cnn3cc(-c4ccc(OCCN5CCCCC5)cc4)cnc23)ccn1 [Dorsomorphin] (first compound 2 µM, partner dose 2 µM) | 57.6 |
| CC1(C)CCC(c2ccc(Cl)cc2)=C(CN2CCN(c3ccc(C(=O)NS(=O)(=O)c4ccc(N[C@H](CCN5CCOCC5)CSc5ccccc5)c(S(=O)(=O)C(F)(F)F)c4)cc3)CC2)C1 + CCc1ccc(CCOc2ccc(CC3SC(=O)NC3=O)cc2)nc1 [pioglitazone] (first compound 2 µM, partner dose 10 µM) | 84.3 |
| Cc1ccc(Nc2nccc(N(C)c3ccc4c(C)n(C)nc4c3)n2)cc1S(N)(=O)=O [Pazopanib] + COC(=O)c1sccc1S(=O)(=O)Nc1ccc(Nc2ccccc2)cc1OC [GSK0660] (first compound 2 µM, partner dose 5 µM) | 102 |
